Reference: the antibiotic and cytotoxicity screens of Wong et al. (2023)
The list shows a part of the results.

How the values were obtained:
[1] = system: HSkMC (human skeletal muscle cells); assay: cytotoxicity call (relative viability < 0.9); details: 10 µM
[2] = system: HepG2; assay: cytotoxicity call (relative viability < 0.9); details: 10 µM
[3] = system: S. aureus RN4220; assay: growth inhibition call (relative growth <= 0.2); details: 50 µM

SMILES	cytotoxicity call [1]	cytotoxicity call [2]	growth inhibition call [3]
O=C(C[C@@H]1C=C[C@H](NC(=O)CN2CCOCC2)[C@H](CO)O1)NCc1cccc(F)c1	inactive	inactive	inactive
C[C@@H]1CN([C@@H](C)CO)C(=O)c2cc(NC(=O)CCCN(C)C)ccc2O[C@H]1CN(C)C(=O)NC1CCCCC1	inactive	inactive	inactive
COc1ccc(COC[C@@]23Oc4ccccc4[C@@H](NC(=S)N2C)[C@@H]3CO[Si](C)(C)C(C)(C)C)cc1	inactive	active	inactive
C[C@@H]1CCCCO[C@H](CN(C)C(=O)Nc2ccccc2)[C@H](C)CN([C@H](C)CO)C(=O)c2cc(NS(=O)(=O)c3ccc(Cl)cc3)ccc2O1	inactive	inactive	inactive
C[C@@H]1CCCCO[C@@H](CN(C)C(=O)Nc2ccc(C(F)(F)F)cc2)[C@@H](C)CN([C@H](C)CO)C(=O)c2cc(NS(=O)(=O)c3cn(C)cn3)ccc2O1	inactive	inactive	inactive
CCn1c(-n2nc(C)cc2C)nc2c1c(=O)n(CC(N)=O)c(=O)n2C	inactive	inactive	inactive
O=C(O)[C@H]1C2C(=O)N3CCCO[C@@H]3[C@]23C=C[C@H]1O3 (stereo partly specified)	inactive	inactive	inactive
C[C@@H]1CCCCO[C@H](CN(C)Cc2ccc(C(F)(F)F)cc2)[C@H](C)CN([C@@H](C)CO)C(=O)c2cc(NC(=O)Nc3cccc4ccccc34)ccc2O1	inactive	inactive	inactive
C[C@@H]1CCCCO[C@@H](CN(C)Cc2ccncc2)[C@H](C)CN([C@H](C)CO)C(=O)c2cc(NS(=O)(=O)c3ccc(Cl)cc3)ccc2O1	inactive	inactive	inactive
O=C(C[C@@H]1CC[C@@H](NS(=O)(=O)c2ccccc2F)[C@@H](CO)O1)NCCCN1CCOCC1	inactive	inactive	inactive
C[C@@H]1CN([C@@H](C)CO)C(=O)c2cc(NC(=O)CCN3CCOCC3)ccc2O[C@H]1CN(C)Cc1ccc(C(=O)O)cc1	inactive	inactive	inactive
CC(C)=Cc1ccc(C#N)c(=S)[nH]1	inactive	inactive	inactive
C[C@@H]1CCCCO[C@H](CN(C)C(=O)Nc2ccccc2)[C@@H](C)CN([C@H](C)CO)C(=O)c2cc(NS(=O)(=O)c3ccccc3)ccc2O1	inactive	inactive	inactive
CC1CC2C3CCC4=CC(=O)C=CC4(C)C3(Cl)C(O)CC2(C)C1(OC(=O)c1ccco1)C(=O)CCl (stereo unspecified)	active	active	inactive
Cc1ccc(S(=O)(=O)N(C)C[C@@H]2Oc3ccc(NS(=O)(=O)c4ccccc4)cc3C(=O)N([C@H](C)CO)C[C@H]2C)cc1	inactive	inactive	inactive
CC(C)(C)CC(C)(C)c1cc(Cc2cc(C(C)(C)CC(C)(C)C)cc(-n3nc4ccccc4n3)c2O)c(O)c(-n2nc3ccccc3n2)c1	inactive	inactive	inactive
Nc1nc(NC2CC2)c2ncn(C3C=CC(CO)C3)c2n1.O=S(=O)(O)O (stereo unspecified)	inactive	inactive	inactive
O=C(Nc1cc(Cl)cc(Cl)c1O)c1c(O)c(Cl)cc(Cl)c1Cl	inactive	inactive	active
Cn1ccc(C(=O)O)cc1=O	inactive	inactive	inactive
C[C@H]1CN([C@@H](C)CO)C(=O)c2cc(NC(=O)Nc3cccc4ccccc34)ccc2O[C@@H]1CN(C)C(=O)Nc1ccc2c(c1)OCO2	inactive	inactive	inactive
C[C@H](CO)N1C[C@H](C)[C@@H](CN(C)S(=O)(=O)c2ccc(Cl)cc2)OCCCC[C@H](C)Oc2ccc(NS(=O)(=O)c3ccc(Cl)cc3)cc2C1=O	inactive	inactive	inactive
COc1cccc(NC(=O)C[C@H]2CC[C@@H]3[C@@H](COc4ccc(NC(=O)C5CCOCC5)cc4C(=O)N3C)O2)c1	inactive	inactive	inactive
N[C@@H]1CC[C@H](CCn2cc(C3CC3)nn2)O[C@@H]1CO	inactive	inactive	inactive
CN1C[C@@H](O)COC[C@H]2O[C@H](CC(=O)N3CCN(c4ccccc4)CC3)CC[C@@H]21	inactive	inactive	inactive
C[C@@H]1CN([C@H](C)CO)C(=O)Cc2cc(NC(=O)Cc3cn(C)c4ccccc34)ccc2O[C@@H]1CN(C)C(=O)Nc1ccc(C(F)(F)F)cc1	inactive	inactive	inactive
C[C@@H]1CCCCO[C@H](CN(C)C(=O)Nc2ccc(F)cc2)[C@H](C)CN([C@@H](C)CO)C(=O)c2cc(NC(=O)Nc3ccc(C(F)(F)F)cc3)ccc2O1	inactive	inactive	inactive
CCn1cc(-c2ccc3ccccc3n2)c(=S)c2ccccc21	inactive	active	inactive
